Source: PubChem BioAssay (NCI)
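Where inhibition never reached the appropriate level, the endpoint shown equals the highest concentration tested. Otherwise, values were interpolated linearly from a five-concentration, 48-hour dose response in 96-well plates. At the GI50, growth is halved.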 Not every entry of the source has a single result; some have several. They are shown here; other results are not. An entry can have further records. For part of these data: Results that share an entry are repeats across runs, samples, wells, individuals or studies. Marks in square brackets tell the records apart. The letters are not those of the source and start again with each entry.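 TGI is the concentration that stops growth completely.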 For part of these data: The tests behind the records often covered other concentration ranges, not given here; some values may only mark the edge of a range.

Columns and labels:
Assay in all cases: DTP human tumour cell line panel, 48 h
[1] = system: RPMI-8226 leukemia
[2] = system: MALME-3M melanoma
[3] = system: CAKI-1 renal
[4] = system: CCRF-CEM leukemia
[5] = system: K-562 leukemia
[6] = system: MDA-MB-231 breast
[7] = system: MOLT-4 leukemia
[8] = system: NCI-H23 lung
[9] = system: SF-295 CNS
[10] = system: SR leukemia
[11] = system: NCI/ADR-RES ovarian

O=C1C=C[C@@H](COC2OC(CO)C(O)C(O)C2O)O1 (some centres not stated)
TGI [1]: 8.78 µM and > 100 µM

Cc1ccc(-c2cc(-c3ccco3)c(C#N)c(=S)n2C2OC(CO)C(O)C(O)C2O)cc1 (configuration not stated)
GI50 [2]: 9.4 µM [sample A, 1 test] and > 100 µM [sample B, 1 test]

CC1=C2C(=C[C@@](C)(CO)[C@@H]2O)C(=O)[C@](C)(O)C12CC2
TGI [3]: 83.4 nM and 11.9 µM
TGI [4]: 3.4 µM and > 100 µM
TGI [5]: 2.44 µM and > 100 µM
TGI [6]: 72.4 nM and 75.5 µM
TGI [7]: 442 nM and > 100 µM
TGI [8]: 17.4 nM and 2.18 µM
TGI [9]: 9.35 nM and 221 nM
TGI [10]: 134 nM and > 100 µM

COc1ccc2[nH]cc(/C=C(/C)c3ccncc3)c2c1
TGI [8]: > 100 µM and 8.5 µM
TGI [11]: > 100 µM and 8.98 µM
